# Measurements: PubChem BioAssay (NCATS)
# Inconclusive means that the source gave no clear call. Such entries were picked first, then a sample of the others. For some assays here: A potency beside an inconclusive call is a rough fit, not a confirmed value. Calls of active or inactive are those of the source. Unless noted, calls come from the whole dose curve; as a rule, active = well fitted curve in the direction sought with a large enough effect; inconclusive = small, poorly fitted or top-dose-only effect, or another doubt; inactive = no such curve, though single readings can be large; an effect the other way counts as inactive or inconclusive.
# Key:
# MKL-2 = experiment: qHTS assay to identify novel small-molecules to repurpose for Merkel cell carcinoma treatment (AID 1296009); conditions: MCC and control cell lines, CellTiter-Glo viability, 72 h; activity change, negative = cytotoxicity: at 46 µM (top of the series); note: nearly all actives have a fitted effect of over 60% in size; note: potency is the fitted concentration of half-maximal effect; for activity change, negative = cytotoxicity: % is set by controls: 0 for no effect and ±100 for the full control effect
# Method in brief: (§1)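 Cell viability measured by CellTiter-Glo following 72 hr compound treatment at 37 degree celsius, with NPC and MIPE libraries tested in 8- and 11-point concentration series.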
# [1] = biological target: Cytochrome P450 2C9 (Homo sapiens) (UniProt P11712); experiment: Cytochrome P450 family 2 subfamily C member 9 (CYP2C9) small molecule antagonists: luciferase biochemical (cell-free) qHTS assay (AID 1645842; active = well fitted curve in the direction sought with a large enough effect in the repeat runs; inconclusive = weak or mixed curves; inactive = no such curve, though single readings can be large; an effect the other way counts as inactive or inconclusive; note: nearly all actives have a fitted effect of over 55% in size; note: potency is the fitted concentration of half-maximal effect; for activity change, negative = inhibition: % is set by controls: 0 for no effect and ±100 for the full control effect)
# Sequence of UniProt P11712 (P11712 whole entry, looked up): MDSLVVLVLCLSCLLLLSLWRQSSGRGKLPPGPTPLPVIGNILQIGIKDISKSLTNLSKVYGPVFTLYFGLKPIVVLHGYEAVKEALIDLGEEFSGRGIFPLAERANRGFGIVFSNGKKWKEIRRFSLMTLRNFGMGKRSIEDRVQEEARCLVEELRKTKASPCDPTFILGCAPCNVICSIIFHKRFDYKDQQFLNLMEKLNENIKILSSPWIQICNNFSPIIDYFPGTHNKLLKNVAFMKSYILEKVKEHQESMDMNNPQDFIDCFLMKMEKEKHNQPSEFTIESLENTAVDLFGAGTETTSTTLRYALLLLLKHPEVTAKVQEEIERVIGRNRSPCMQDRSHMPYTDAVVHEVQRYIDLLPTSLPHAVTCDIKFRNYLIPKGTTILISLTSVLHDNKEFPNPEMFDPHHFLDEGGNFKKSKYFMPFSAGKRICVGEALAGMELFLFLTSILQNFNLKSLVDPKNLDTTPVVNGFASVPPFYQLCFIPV
# Method in brief: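 P450-Glo CYP2C9 system: proluciferin substrate with enzyme in mix containing 0.4% BSA, 10 min at room temperature, then NADPH regeneration solution added and incubated 1 h at 37C. Detection reagent stopped reaction; luminescence read after 20 min as RLU.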
# [2] = qHTS of pediatric cancer cell lines to identify multiple opportunities for drug repurposing: Primary screen for SK-N-SH cells (AID 1347098); note: nearly all actives have a fitted effect of over 65% in size; note: potency is the fitted concentration of half-maximal effect; for activity change, negative = cytotoxic: % is set by controls: 0 for no effect and ±100 for the full control effect
# Method in brief: (§2)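 Cells (500-1,000/well) rested 5 h, then received compounds for 48 h; metabolically active cells were measured by CellTiter-Glo luminescence. Final concentrations spanned up to 46 µM (MIPE, 11-point) or 0.59 nM-46 µM (NPC, 8-point) in primary screens, 11-point in follow-ups.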
# [3] = Primary qHTS for small molecule stabilizers of the endoplasmic reticulum resident proteome: Secreted ER Calcium Modulated Protein (SERCaMP) assay (AID 1508630); conditions: SH-SY5Y GLuc-SERCaMP (Gaussia luciferase released on ER calcium loss) secretion, thapsigargin, luminescence; activity change, negative = inhibition: at 38.4 µM (top of the series) unless noted; note: potency is the fitted concentration of half-maximal effect
# Method in brief: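 The SH-SY5Y reporter protocol was run at 3 concentrations up to 38.3 uM (primary) or 11 concentrations (follow-up): 16 h compound, 100 nM thapsigargin for 4 h, then extracellular luciferase luminescence.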
# [4] = qHTS of pediatric cancer cell lines to identify multiple opportunities for drug repurposing: Primary screen for DAOY cells (AID 1347090); conditions: DAOY medulloblastoma viability, CellTiter-Glo luminescence, 48 h; activity change, negative = cytotoxic: at 46 µM (top of the series); note: potency is the fitted concentration of half-maximal effect; nearly all actives have a fitted effect of over 55% in size
# Method in brief: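 Cell viability, CellTiter-Glo luminescence; 500-1,000 cells/well, 8- or 11-point titration, 48 h compound exposure at 37 degrees C, 5% CO2. Controls: DMSO neutral, bortezomib 2.3 µM final as positive.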
# [5] = qHTS of pediatric cancer cell lines to identify multiple opportunities for drug repurposing: Primary screen for NB-EBc1 cells (AID 1347095); note: potency is the fitted concentration of half-maximal effect;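 for activity change, negative = cytotoxic: plate controls were DMSO neutral control for no effect and bortezomib for full effect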
# Method in brief: (§3)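 CRCs from 8- or 11-point titrations (lowest final 0.59 nM NPC, 0.78 nM MIPE). Cell viability: CellTiter-Glo after 48 h incubation, 15 min room-temperature development, luminescence imaging.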
# [6] = qHTS of pediatric cancer cell lines to identify multiple opportunities for drug repurposing: Primary screen for NB1643 cells (AID 1347099); note: potency is the fitted concentration of half-maximal effect; nearly all actives have a fitted effect of over 50% in size
# Method in brief: as §3
# [7] = qHTS of pediatric cancer cell lines to identify multiple opportunities for drug repurposing: Primary screen for BT-12 cells (AID 1347101); note: nearly all actives have a fitted effect of over 25% in size; note: potency is the fitted concentration of half-maximal effect;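 for activity change, negative = cytotoxic: plate controls were DMSO for no effect and bortezomib positive control for full effect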
# Method in brief: as §2
# [8] = qHTS of pediatric cancer cell lines to identify multiple opportunities for drug repurposing: Primary screen for OHS-50 cells (AID 1347103); note: nearly all actives have a fitted effect of over 40% in size; note: potency is the fitted concentration of half-maximal effect;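 for activity change, negative = cytotoxic: plate controls were DMSO neutral control for no effect and bortezomib positive control for full effect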
# Method in brief: as §2
# [9] = qHTS of pediatric cancer cell lines to identify multiple opportunities for drug repurposing: Primary screen for LAN-5 cells (AID 1347100); note: potency is the fitted concentration of half-maximal effect;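 for activity change, negative = cytotoxic: plate controls were DMSO neutral control for no effect and bortezomib positive control for full effect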
# Method in brief: as §2
# WaGa = experiment: qHTS assay to identify novel small-molecules to repurpose for Merkel cell carcinoma treatment (AID 1296009); conditions: MCC and control cell lines, CellTiter-Glo viability, 72 h; series mostly up to 46 µM; note: nearly all actives have a fitted effect of over 60% in size; note: potency is the fitted concentration of half-maximal effect; for activity change, negative = cytotoxicity: % is set by controls: 0 for no effect and ±100 for the full control effect
# Method in brief: as §1
# [10] = NS1 protein of Zika virus - qHTS assay to identify small molecule inhibitors in human HEK 293 cells (AID 1347053); note: potency is the fitted concentration of half-maximal effect; nearly all actives have a fitted effect of over 55% in size
# Method in brief: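 TR-FRET signal from two anti-ZIKV NS1 antibodies quantified NS1 in HEK 293 cells 24 h after MR766 infection at MOI = 0.5; compounds were added 1 h before virus. Uninfected cells and infected cells defined the NS1 normalization range.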
# [11] = Quantitative High-Throughput drug screen in 47 multiple myeloma cell lines against the NCATS MIPE library collection: Karpas417_ECACC cell viability assay (AID 1918961); conditions: Karpas417 myeloma viability, CellTiter-Glo ATP luminescence, 48 h; viability (% of DMSO): at 45.8 µM (top of the series); note: potency is the fitted concentration of half-maximal effect
# Method in brief: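 Inhibition of cell viability is measured here. Each line was plated at 500 cells per well, treated with MIPE 4.0 drugs, kept 48 hours at 37C, then assayed for ATP content by CellTiter-Glo luminescence.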
# [12] = Quantitative High-Throughput drug screen in 47 multiple myeloma cell lines against the NCATS MIPE library collection: KMS20_JCRB cell viability assay (AID 1918973); conditions: CellTiter-Glo ATP, 48 h; viability (% of DMSO): at 45.8 µM (top of the series); note: potency is the fitted concentration of half-maximal effect; nearly all actives have a fitted effect of over 45% in size
# Method in brief: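 Viability readout: CellTiter-Glo luminescence following 5 min room-temperature incubation with reagent. Prior exposure: 48 h, 37C, humidified 5% CO2, 500 cells per well.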
# [13] = qHTS for identification of novel therapeutic agents for treatment of microphthalmiaassociated transcription factor (MiT) renal cell carcinoma (RCC) (AID 1963991; calls by dose curve; note: potency is the fitted concentration of half-maximal effect); conditions: TFE3-RCC UOK109 viability, CellTiter-Glo, 48 h; active = Z-AUC below -0.8 in all three lines
# Method in brief: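 UOK109/UOK124/UOK145 (TFE3 fusions, three partners); 500 cells/well; MIPE v4.0, 1912 cpds, 11 conc.; 48 h, 37 C; CellTiter-Glo, 15 min RT; lum. Norm.: DMSO 100%, empty 0%.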
# [14] = qHTS assay to identify inhibitors of the type 1 interferon - major histocompatibility complex class I in skeletal muscle: Counter screen cell viability and HiBit confirmation (AID 1347412); conditions: iHSKM muscle cells + IFN-b, HiBiT or CellTiter-Glo, 24 h; note: nearly all actives have a fitted effect of over 60% in size; note: potency is the fitted concentration of half-maximal effect
# Method in brief: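 HLA-B*08:01–HiBiT knock-in immortalized human myoblasts (C25cl48) stimulated with 4.0 ng/ml human IFN-beta and dosed with compound in a 12-point 1:3 titration (top final 46 uM). After 24 hrs at 37 C, HiBiT lytic luminescence or CellTiter Glo ATP read out.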
# MCC-26 = experiment: qHTS assay to identify novel small-molecules to repurpose for Merkel cell carcinoma treatment (AID 1296009); conditions: MCC and control cell lines, CellTiter-Glo viability, 72 h; activity change, negative = cytotoxicity: at 46 µM (top of the series); note: nearly all actives have a fitted effect of over 60% in size; note: potency is the fitted concentration of half-maximal effect
# Method in brief: as §1
# [15] = qHTS to identify inhibitors of the type 1 interferon - major histocompatibility complex class I in skeletal muscle: primary screen against the NCATS Mechanism Interrogation Plate v5.0 (MIPE) Libary (AID 1347411); conditions: iHSKM cells + IFN-b, HiBiT-tagged MHC-I luminescence, 24 h; activity change, negative = inhibition: at 45.8 µM (top of the series); note: potency is the fitted concentration of half-maximal effect; nearly all actives have a fitted effect of over 65% in size
# Method in brief: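 IFN-beta-driven (4 ng/ml) HLA-B-HiBit expression in CRISPR-tagged C25cl48 myoblasts; compounds 11-pt, 1:3, max 46 uM, 24 hr exposure; lytic NanoLuc complementation luminescence.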
# JEG-3 = experiment: Primary qHTS to identify gynecologic anti-cancer compounds using libraries of approved drugs and bioactive compounds (AID 1345084); conditions: Gynecologic cancer cell panel viability, ATPlite luminescence, 48 h; series mostly up to 57.5 µM; note: potency is the fitted concentration of half-maximal effect; nearly all actives have a fitted effect of over 55% in size
# Method in brief: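 48 h compound exposure at 37 C, 5% CO2; five-point qHTS. ATPlite luminescence readout of cell ATP.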
# [16] = qHTS of pediatric cancer cell lines to identify multiple opportunities for drug repurposing: Primary screen for BT-37 cells (AID 1347094);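 note: plate controls were DMSO for no effect and bortezomib for full effect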
# Method in brief: as §3
# Tags give direction and shape of the fitted curve.
smiles,measurement,setting,value
CC1CC(OC(=O)c2ccccc2O)CC(C)(C)C1 (stereo unspecified),Potency,MKL-2,"inconclusive: 5960 nM [inhibitor, single point]"
CC(C)N(CCCCOCC(=O)NS(C)(=O)=O)c1cnc(-c2ccccc2)c(-c2ccccc2)n1,Potency,[1],"inconclusive: 23900 nM [inhibitor, single point]"
C[C@@H]1O[C@@H](OC[C@H]2O[C@@H](Oc3c(-c4ccc(O)c(O)c4)oc4cc(O)cc(O)c4c3=O)[C@H](O)[C@@H](O)[C@@H]2O)[C@H](O)[C@H](O)[C@H]1O,Potency,[2],inactive
same,Potency,[3],"inconclusive: 12600 nM [inhibitor, single point]"
same,Potency,[1],inactive
same,Potency,MKL-2,inactive
CCc1oc2ccccc2c1C(=O)c1cc(Br)c(O)c(Br)c1,Potency,[4],"inconclusive: 21100 nM [cytotoxic, single point]"
same,Potency,[5],"inconclusive: 33500 nM [cytotoxic, single point]"
same,Potency,[6],"inconclusive: 29900 nM [cytotoxic, single point]"
same,Potency,[7],inactive
same,Potency,[8],"inconclusive: 38900 nM [cytotoxic, single point]"
CCS(=O)(=O)CCn1c([N+](=O)[O-])cnc1C,Potency,[5],inactive
same,Potency,[9],inactive
same,Potency,[7],inactive
same,Potency,[8],inactive
same,Potency,WaGa,inactive
CN1CCCN=C1COC(=O)C(O)(c1ccccc1)C1CCCCC1 (stereo unspecified),Potency,[1],inactive
Cn1cc(CNCC2CCN(c3ncc(C(=O)NO)cn3)CC2)c2ccccc21,Potency,[10],"inconclusive: 37200 nM [inhibitor, single point]"
same,Potency,[4],active: 235 nM
same,Potency,[2],active: 121 nM
same,Potency,[6],active: 148 nM
same,Potency,[9],active: 52.6 nM
same,Potency,[7],active: 193 nM
same,Potency,[8],active: 86.3 nM
same,Potency,[11],active: 16.6 nM
same,Potency,[12],active: 29.6 nM
same,Potency,[13],active: 166 nM
same,Potency,[14]; Viability,"inconclusive: 1400 nM [cytotoxic, full curve]"
same,Potency,MCC-26,active: 590 nM
CN(C)Cc1c(C(=O)NCCOc2ccc(C(=O)NO)cc2)oc2ccccc12,Potency,[5],active: 662 nM
same,Potency,[9],active: 469 nM
same,Potency,[8],active: 769 nM
same,Potency,[15],"inconclusive: 466 nM [inhibitor, full curve]"
same,Potency,[11],active: 372 nM
same,Potency,[12],active: 372 nM
same,Potency,[13],"inconclusive: 2350 nM [falling, partial curve]"
same,Potency,JEG-3,active: 3550 nM
same,Potency,[14]; HiBiT,active: 787 nM
same,"activity change, negative = inhibition","[14]; Viability, at 45.9 µM (top of the series)",inactive: -5.27%
same,Potency,MCC-26,active: 7430 nM
same,Potency,MKL-2,active: 662 nM
same,Potency,WaGa,active: 332 nM
CC(C)n1c(/C=C/[C@@H](O)C[C@@H](O)CC(=O)O)c(-c2ccc(F)cc2)c2ccccc21,Potency,[4],active: 1330 nM
same,Potency,[5],"inconclusive: 29900 nM [cytotoxic, single point]"
same,Potency,[9],inactive
same,Potency,[7],"inconclusive: 872 nM [cytotoxic, full curve]"
same,Potency,JEG-3,"inconclusive: 39800 nM [cytotoxic, single point]"
same,Potency,MKL-2,"inconclusive: 5310 nM [inhibitor, full curve]"
O=C(Cn1ccnc1[N+](=O)[O-])NCCO,Potency,[16],inactive
same,Potency,[1],inactive
same,Potency,MKL-2,inactive
N=c1nc(N2CCCCC2)cc(N)n1O,Potency,[6],"inconclusive: 18700 nM [cytotoxic, single point]"
same,Potency,[11],"inconclusive: 16600 nM [rising, partial curve, poor fit]"
same,Potency,[12],"inconclusive: 37200 nM [cytotoxic, single point]"
same,Potency,[13],"inconclusive: 18700 nM [falling, single point]"
same,Potency,MKL-2,inactive
